Experimental findings from a collection of fitness landscapes (doi:10.1016/j.celrep.2020.107928) are described below.

Over roughly 81,000 sequences, “one-hybrid fitness for binding NBS DNA” has its median near -0.1; the highest 2% begin near 0.36. The list shows a part of the results. Some results are limits rather than exact numbers.

The chains are these.
B1: Caulobacter ParB omega fusion; a variant is named by its letters at X, in order, B8GW30 (parent)
chain: MESVVVGEPGMSEGRRGLGRGLSALLGEVDAAPAQAPGEQLGGSREAPIEILQRNPDQPRRTFREEDLEDLSNSIREKGVLQPILVRPSPDTAGEYQIVAGERAWRAAQRAGLKTVPIMVRELDDLAVLEIGIIENVQRADLNVLEEALSYKVLMEKFERTQENIAQTIGKSXSHVANXMRLLXLPDEVQSYLVSGELTAXHARAIAAAADPVALAKQIIEGGLSVRETEALARKAPNLSAGKSKGGRPPRVKDTDTQALESDLSSVLGLDVSIDHRGSTGTLTITYATLEQLDDLCNRLTRGI

Variants of B1 are the subject of the assay. Kind of assay: one-hybrid fitness for binding NBS DNA (the Noc-binding site; scaled: cognate 1, non-cognate 0); higher = stronger binding. To be noted: with NBS DNA site. A digest of the protocol: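 The reporter was HIS3, with the binding site 19 bp from the promoter, in E. coli USO used for bacterial one-hybrid selection of Caulobacter ParB libraries with four specificity codons randomised. Growth was on M9 lacking histidine, with 0.1 mM IPTG and 5 mM 3-AT, for 48 hours at 37°C. Illumina sequencing covered plasmids before and after selection; three replicate libraries were pooled and variants with under 10 reads dropped. A fitness score is the log change in variant-to-wild-type read ratio, rescaled to the cognate and non-cognate references.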
RKQL: the “one-hybrid fitness for binding NBS DNA” value was at most 0.2.
For HTSV, the “one-hybrid fitness for binding NBS DNA” value is at most 0.2.
For the variant IYGL, the “one-hybrid fitness for binding NBS DNA” value is at most 0.2.
YQTV: the “one-hybrid fitness for binding NBS DNA” value is at most 0.2.
Consider GDRR, for which the “one-hybrid fitness for binding NBS DNA” value is at most 0.2.
On to CATD, for which the “one-hybrid fitness for binding NBS DNA” value was at most 0.2.
The same measure for GDVW: at most 0.2; for GGYR: at most 0.2.
As to KKRE, the “one-hybrid fitness for binding NBS DNA” value is at most 0.2.
Turning to GFHR, the “one-hybrid fitness for binding NBS DNA” value is at most 0.2.
In the case of SHCS, the “one-hybrid fitness for binding NBS DNA” value was at most 0.2.
The same measure for KVHC: at most 0.2.
As to HHNR, the “one-hybrid fitness for binding NBS DNA” value was at most 0.2.
RLCS: the “one-hybrid fitness for binding NBS DNA” value amounted to 0.334.
In the case of EPTV, the “one-hybrid fitness for binding NBS DNA” value was at most 0.2.
In the case of QTPI, the “one-hybrid fitness for binding NBS DNA” value is at most 0.2.
On to DNNG, for which the “one-hybrid fitness for binding NBS DNA” value is at most 0.2.
As to RNIV, the “one-hybrid fitness for binding NBS DNA” value was at most 0.2.
The same measure for VRIC: at most 0.2; for TDIK: at most 0.2.
Consider YQHC, for which the “one-hybrid fitness for binding NBS DNA” value is at most 0.2.
Take GFTM: the “one-hybrid fitness for binding NBS DNA” value was at most 0.2.
For the variant YLAP, the “one-hybrid fitness for binding NBS DNA” value is at most 0.2.
As for GLPC, the “one-hybrid fitness for binding NBS DNA” value is at most 0.2.
The same measure for LRDF: at most 0.2.
In the case of KPMG, the “one-hybrid fitness for binding NBS DNA” value is at most 0.2.
With TYWG, the “one-hybrid fitness for binding NBS DNA” value is at most 0.2.
HVGK: the “one-hybrid fitness for binding NBS DNA” value is at most 0.2.
For QWNR, the “one-hybrid fitness for binding NBS DNA” value is 0.304.
The same measure for DAEY: at most 0.2; for HPGM: at most 0.2.
In the case of GCVR, the “one-hybrid fitness for binding NBS DNA” value is at most 0.2.
The same measure for ERDR: at most 0.2; for WSHG: at most 0.2.
With CTRE, the “one-hybrid fitness for binding NBS DNA” value is at most 0.2.
On to RSDH, for which the “one-hybrid fitness for binding NBS DNA” value is at most 0.2.
In the case of ETWN, the “one-hybrid fitness for binding NBS DNA” value was at most 0.2.
As to EIHV, the “one-hybrid fitness for binding NBS DNA” value was at most 0.2.
On to SATQ, for which the “one-hybrid fitness for binding NBS DNA” value is at most 0.2.
Regarding RQWL, the “one-hybrid fitness for binding NBS DNA” value was at most 0.2.
In the case of RRWH, the “one-hybrid fitness for binding NBS DNA” value came out at 0.401.
Consider TMCR, for which the “one-hybrid fitness for binding NBS DNA” value was at most 0.2.
Turning to LQQG, the “one-hybrid fitness for binding NBS DNA” value is at most 0.2.
PYNN: the “one-hybrid fitness for binding NBS DNA” value is at most 0.2.
For HDHS the value was at most 0.2.
For RSYP the value was at most 0.2; for REPR, at most 0.2; for LWKA, at most 0.2.
In the case of DMTE, the “one-hybrid fitness for binding NBS DNA” value was at most 0.2.
For LSSI the value was at most 0.2; for YAVT, at most 0.2; for TRFE, at most 0.2.
Turning to LEPR, the “one-hybrid fitness for binding NBS DNA” value is at most 0.2.
As for LCIR, the “one-hybrid fitness for binding NBS DNA” value is at most 0.2.
In the case of VAPI, the “one-hybrid fitness for binding NBS DNA” value was at most 0.2.
For RKTN the value was at most 0.2; for CTVL, at most 0.2.
The same measure for PWSA: at most 0.2; for PCQT: at most 0.2; for FQSM: at most 0.2.
In the case of PDNF, the “one-hybrid fitness for binding NBS DNA” value was at most 0.2.
The same measure for LFAS: at most 0.2; for KPFG: at most 0.2; for NRQF: at most 0.2.
Consider HTLT, for which the “one-hybrid fitness for binding NBS DNA” value is at most 0.2.
For PGGT the value was at most 0.2; for GTIS, at most 0.2.
For TWFN, the “one-hybrid fitness for binding NBS DNA” value was at most 0.2.
RKTQ: the “one-hybrid fitness for binding NBS DNA” value is at most 0.2.
The same measure for LRCT: at most 0.2.
For GTNK the value was at most 0.2.
Turning to YIMW, the “one-hybrid fitness for binding NBS DNA” value is at most 0.2.
For the variant PFDC, the “one-hybrid fitness for binding NBS DNA” value was at most 0.2.
Regarding MAWT, the “one-hybrid fitness for binding NBS DNA” value was at most 0.2.
For KWNV the value was at most 0.2; for VAVW, at most 0.2.
For the variant CDDV, the “one-hybrid fitness for binding NBS DNA” value was at most 0.2.
For RNGI, the “one-hybrid fitness for binding NBS DNA” value is at most 0.2.
For the variant NTHI, the “one-hybrid fitness for binding NBS DNA” value is at most 0.2.
Consider ESVF, for which the “one-hybrid fitness for binding NBS DNA” value was at most 0.2.
In the case of NEHS, the “one-hybrid fitness for binding NBS DNA” value is at most 0.2.
AKNE: the “one-hybrid fitness for binding NBS DNA” value was at most 0.2.
The same measure for QIII: at most 0.2.
Regarding RCKV, the “one-hybrid fitness for binding NBS DNA” value turned out to be 0.23.
